# According to PubChem BioAssay (NCATS):
# Where “and” joins values, the source holds several entries; their conditions need not be identical. Equal entries are not always repeated. Inconclusive results, whose numbers are uncertain, are shown with a selection of clear calls. A potency beside an inconclusive call is a rough fit, not a confirmed value. Calls of active or inactive are those of the source. The call rests on the fitted dose curve; in most records, active means well fitted cell-killing curve with a large enough effect; inconclusive means small, poorly fitted or top-dose-only effect, or effect the other way; inactive means flat fitted curve, though single readings scatter.
# How the values were obtained:
# Assay in all cases: Primary qHTS to identify gynecologic anti-cancer compounds using libraries of approved drugs and bioactive compounds (AID 1345084); further: nearly all actives have a fitted effect of over 55% in size
# Hek293T = conditions: Gynecologic cancer cell panel viability, ATPlite luminescence, 48 h, control line for the selectivity index; series mostly up to 57.5 µM
# How it was run: (§1)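 Cells, 1,000 per well, plated 16 h, then exposed 48 h at 37 C to compounds. Viability by ATPlite luminescence after 15 min at room temperature.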
# OV90 = conditions: Gynecologic cancer cell panel viability, ATPlite luminescence, 48 h; series mostly up to 57.5 µM
# How it was run: as §1
# SKOV3 = conditions: Gynecologic cancer cell panel viability, ATPlite luminescence, 48 h; series mostly up to 57.5 µM
# How it was run: as §1
# PA-1 = conditions: Gynecologic cancer cell panel viability, ATPlite luminescence, 48 h; series mostly up to 57.5 µM
# How it was run: as §1
# Tov-21-G = conditions: Gynecologic cancer cell panel viability, ATPlite luminescence, 48 h; series mostly up to 57.5 µM
# How it was run: as §1
# Tov112D = conditions: Gynecologic cancer cell panel viability, ATPlite luminescence, 48 h; series mostly up to 57.5 µM
# How it was run: as §1
# JEG-3 = conditions: Gynecologic cancer cell panel viability, ATPlite luminescence, 48 h; series mostly up to 57.5 µM
# How it was run: as §1
# Potency means the concentration at half of the fitted maximal effect; tags describe the fitted curve by direction and shape.
Structure (SMILES),Potency (Hek293T),Potency (OV90),Potency (SKOV3),Potency (PA-1),Potency (Tov-21-G),Potency (Tov112D),Potency (JEG-3)
CNCCC(Oc1ccccc1OC)c1ccccc1 (configuration not stated),inactive,"inconclusive: 15.8 µM [cytotoxic, partial curve]",inactive,,,,
N=C(N)c1ccc(OCCCCCOc2ccc(C(=N)N)cc2)cc1,"inconclusive: 3.55 µM [cytotoxic, partial curve, poor fit]",,"inconclusive: 39.8 µM [cytotoxic, single point]",active: 5.01 µM,,,
CCCCOc1ccc(C(=O)CCN2CCCCC2)cc1,"inconclusive: 11.2 µM [cytotoxic, partial curve, poor fit]",,"inconclusive: 17.8 µM [cytotoxic, single point]",,inactive,,
CN1CCCN(C(c2ccccc2)c2ccc(Cl)cc2)CC1 (configuration not stated),"inconclusive: 28.2 µM [cytotoxic, single point]","inconclusive: 8.91 µM [cytotoxic, partial curve]","inconclusive: 35.5 µM [cytotoxic, single point]",,,,
CN1CCN(C(=O)C2CCCCC2)CC1,inactive,,"inconclusive: 12.6 µM [rising, partial curve, poor fit]",,,,
COc1c(C)c2c(c(O)c1C/C=C(\C)CCC(=O)O)C(=O)OC2,"inconclusive: 3.16 µM [cytotoxic, full curve, poor fit]","inconclusive: 2 µM [cytotoxic, full curve, poor fit]","inconclusive: 10 µM [cytotoxic, partial curve, poor fit]",,active: 1 µM,"inconclusive: 3.98 µM [cytotoxic, full curve]",
CNCCCC1c2ccccc2C=Cc2ccccc21,"inconclusive: 31.6 µM [cytotoxic, single point]","inconclusive: 22.4 µM [cytotoxic, single point]",,"inconclusive: 39.8 µM [cytotoxic, single point]","inconclusive: 39.8 µM [cytotoxic, single point]","inconclusive: 39.8 µM [cytotoxic, single point]",
Oc1c(I)cc(Cl)c2cccnc12,"inconclusive: 31.6 µM [cytotoxic, single point]",,"inconclusive: 7.08 µM [rising, partial curve, poor fit]","inconclusive: 39.8 µM [cytotoxic, single point]","inconclusive: 31.6 µM [cytotoxic, single point]","inconclusive: 35.5 µM [cytotoxic, single point]",
Cc1nnc(NS(=O)(=O)c2ccc(N)cc2)s1,inactive,,inactive,,,,
CC[C@H](C)[C@H]1O[C@]2(CC[C@@H]1C)C[C@@H]1C[C@@H](C/C=C(\C)[C@@H](O[C@H]3C[C@H](OC)[C@@H](O[C@H]4C[C@H](OC)[C@@H](O)[C@H](C)O4)[C@H](C)O3)[C@@H](C)/C=C/C=C3\CO[C@@H]4[C@H](O)C(C)=C[C@@H](C(=O)O1)[C@]34O)O2,"inconclusive: 8.91 µM [cytotoxic, partial curve, poor fit]",,inactive,,,,
CCC(=O)O[C@]1(C(=O)CCl)[C@@H](C)C[C@H]2[C@@H]3C[C@H](F)C4=CC(=O)C=C[C@]4(C)[C@@]3(F)[C@@H](O)C[C@@]21C,inactive,,inactive,inactive,inactive,inactive,
Nc1ccc(S(=O)(=O)Nc2ccccc2)cc1,,,,,,,inactive
CC(=O)O[C@]1(C(C)=O)CC[C@H]2[C@@H]3C[C@H](C)C4=CC(=O)CC[C@]4(C)[C@H]3CC[C@@]21C,"inconclusive: 25.1 µM [cytotoxic, partial curve, poor fit]",,,"inconclusive: 25.1 µM [cytotoxic, single point]",,"inconclusive: 20 µM [cytotoxic, partial curve, poor fit] and inactive",
Cc1ccc(C(N)=O)cc1Nc1nccc(-c2cn(C(C)C)c3cnccc23)n1,active: 17.8 µM,,"inconclusive: 7.94 µM [cytotoxic, full curve, poor fit]","inconclusive: 15.8 µM [cytotoxic, partial curve, poor fit]",,active: 17.8 µM,
CCCN1CCCC[C@H]1C(=O)Nc1c(C)cccc1C,inactive,,"inconclusive: 39.8 µM [cytotoxic, partial curve, poor fit]",,,,
C[C@H](O)C(=O)Nc1c(I)c(C(=O)NC(CO)CO)c(I)c(C(=O)NC(CO)CO)c1I,"inconclusive: 2.82 µM [rising, partial curve, poor fit]","inconclusive: 0.794 µM [rising, partial curve, poor fit]",inactive,,,,
CC(C)(C(=O)c1cccnc1)c1cccnc1,,,,,,,"inconclusive: 1.58 µM [rising, partial curve]"
CC(C)(C)CC(C)(C)c1ccc(OCCOCC[N+](C)(C)Cc2ccccc2)cc1,"inconclusive: 28.2 µM [cytotoxic, single point]","inconclusive: 10 µM [cytotoxic, partial curve, poor fit] and inconclusive: 7.94 µM [cytotoxic, full curve]","active: 12.6 µM and inconclusive: 31.6 µM [cytotoxic, single point]","active: 14.1 µM and inconclusive: 14.1 µM [cytotoxic, partial curve, poor fit]","inconclusive: 39.8 µM [cytotoxic, single point] and inconclusive: 35.5 µM [cytotoxic, single point]","inconclusive: 12.6 µM [cytotoxic, partial curve]",
CCn1c(-c2nonc2N)nc2cncc(CNC3CCNCC3)c21,"inconclusive: 28.2 µM [cytotoxic, single point]","inconclusive: 7.94 µM [cytotoxic, partial curve]","inconclusive: 11.2 µM [cytotoxic, partial curve, poor fit]",,"inconclusive: 28.2 µM [cytotoxic, single point]",,
COc1cc(OC)cc(OC)c1,inactive,,inactive,,,,
CCN(CC)CCCN(c1ccccc1)C1Cc2ccccc2C1,"inconclusive: 39.8 µM [cytotoxic, single point]","inconclusive: 12.6 µM [cytotoxic, partial curve, poor fit]","inconclusive: 22.4 µM [cytotoxic, partial curve, poor fit]",,inactive,,
O[C@@H](CNC[C@H](O)[C@H]1CCc2cc(F)ccc2O1)[C@@H]1CCc2cc(F)ccc2O1,inactive,"inconclusive: 39.8 µM [cytotoxic, single point]",active: 22.4 µM,"inconclusive: 39.8 µM [cytotoxic, single point]","inconclusive: 35.5 µM [cytotoxic, single point]","inconclusive: 28.2 µM [cytotoxic, single point]",
CN(C)/N=N/c1nc[nH]c1C(N)=O,"inconclusive: 39.8 µM [cytotoxic, single point]","inconclusive: 39.8 µM [cytotoxic, single point]","inconclusive: 17.8 µM [cytotoxic, partial curve, poor fit]","inconclusive: 31.6 µM [cytotoxic, partial curve]","inconclusive: 35.5 µM [cytotoxic, partial curve, poor fit]","inconclusive: 39.8 µM [cytotoxic, single point]",
CCOc1ccc(Cc2nccc3cc(OCC)c(OCC)cc23)cc1OCC,"inconclusive: 15.8 µM [cytotoxic, partial curve]",active: 7.08 µM,active: 2.24 µM,"inconclusive: 3.98 µM [cytotoxic, partial curve, poor fit]",,"inconclusive: 3.55 µM [cytotoxic, partial curve, poor fit]",
C=C(CC)C(=O)c1ccc(OCC(=O)O)c(Cl)c1Cl,"inconclusive: 35.5 µM [cytotoxic, single point]",,,inactive,"inconclusive: 31.6 µM [cytotoxic, partial curve, poor fit]","inconclusive: 35.5 µM [cytotoxic, partial curve, poor fit]",
Fc1cc(-c2cccc3ncc(-c4cnn(C5CCNCC5)c4)nc23)cc(F)c1CN1CCOCC1,,,active: 12.6 µM,"inconclusive: 28.2 µM [cytotoxic, single point]",active: 11.2 µM,"inconclusive: 31.6 µM [cytotoxic, single point]","inconclusive: 39.8 µM [cytotoxic, single point]"
Cc1ccccc1C(=O)Nc1ccc(C(=O)N2CCCC(O)c3cc(Cl)ccc32)c(C)c1 (configuration not stated),,"inconclusive: 39.8 µM [cytotoxic, single point]",,,,,
CCCCCCNC(=O)n1cc(F)c(=O)[nH]c1=O,,,"inconclusive: 1.12 µM [cytotoxic, full curve, poor fit]","inconclusive: 10 µM [cytotoxic, partial curve]","inconclusive: 7.94 µM [cytotoxic, full curve]",,"inconclusive: 7.94 µM [cytotoxic, full curve]"
CC(=O)[C@H]1CC[C@H]2[C@@H]3C[C@H](C)C4=CC(=O)CC[C@]4(C)[C@H]3[C@@H](O)C[C@]12C,,,inactive,"inconclusive: 22.4 µM [cytotoxic, single point]",,,inactive
